Reference: US9238810B2, “Polypeptide” (AFFIBODY AB, priority 2008, dated 2016)

How the values were obtained:
[1] = Circular dichroism analysis with variable temperature measurement; format: physicochemical; conditions: CD 220 nm during heating to 90° C.; 0.5 mg/ml in PBS
[2] = target: T1, palivizumab (human monoclonal IgG, without VH3 domain) (Homo sapiens, UniProt P01857); assay: Biacore surface plasmon resonance kinetic analysis on immobilized palivizumab; format: binding; conditions: for ka / kd: 25 nM and 100 nM injections, 1:1 binding model; for Kd: estimated, 1:1 Langmuir binding model
T1 construct: purchased Apoteket article no; 549170

[3] = Solubility analysis of lyophilized protein in PBS; format: physicochemical; conditions: for Expected concentration of dissolved molecules: PBS added to lyophilized protein, based on the amount of protein in each vial; for Appearance of solution after raising pH: pH raised to approximately 10 with 50% NaOH
[4] = Characteristics of purified proteins (isoelectric point); format: physicochemical

| Substance | Tm [1] [°C] | ka [2] [M⁻¹ s⁻¹] | kd [2] [s⁻¹] | Kd [2] [nM] | Expected concentration of dissolved molecules [3] [mg/mL] | Appearance of solution after raising pH [3] | Isoelectric point [4] |
| --- | --- | --- | --- | --- | --- | --- | --- |
| Z02726: IgG Fc-binding Z variant polypeptide, clone derived from selection round 5 (VDAKFWKEQQHAFYEILHLPNLTEDQRQAFIASLRKDPSQSARLLAGAKKLDDAQAPK; IgG Fc-binding polypeptide) [Protein Z02726] | 62 | 2.6e+06 | 0.045 | 18 | 30 | clear solution | 7.7 |
| Z02742: IgG Fc-binding Z variant polypeptide, clone derived from selection round 5 (VDAKFWKEQQHAFYEILHLPNLTEGQKHAFIRALRGDPSQSARLLARAKKLDDAQAPK; IgG Fc-binding polypeptide) [Protein Z02742] | 63 | 9.6e+06 | 0.043 | 5 | 30 | clear solution | 10.3 |
